The source of these data is the supplement of paper PMC4967469.

By IC50 is meant the dose at which the fit gives 50% viability; a fit beyond the top or the lowest dose is shown as a bound at that dose. AUC is the area under the same curve over the 256-fold range up to the top dose, as a fraction; the more sensitive the line, the further below 1. Where only a bound is given, the exact number is not on record here.

For orientation: IC50 means the midpoint of a concentration-inhibition curve.

Compound in this experiment: NC1(c2ccc(-c3nc4ccn5c(=O)[nH]nc5c4cc3-c3ccccc3)cc2)CCC1 [MK-2206]
The experiment can be described thus: Viability of human cancer cell lines after 72 h of drug (GDSC screen). As for the experimental part: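 Human cancer cell lines in 384-well plates, medium with 10% serum, drug for 72 h over a 256-fold dose range (nine 2-fold or five 4-fold steps up to the top dose). Adherent lines were fixed and stained with the nucleic acid dye Syto60, suspension lines read with resazurin; signal relative to control wells, capped at 0 and 100%. One two-parameter sigmoid per drug and line, fitted in a mixed model over all curves with the slope shared within a line.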

As for “SNG-M (endometrium, adherent, top dose 4 µM)”, the AUC is 0.939 and the 50% inhibitory concentration (IC50) is more than 4 µM.

“SNU-61 (large intestine, adherent, top dose 4 µM)”: the AUC was determined as 0.895 and the IC50 is more than 4 µM.

On to “SNU-81 (large intestine, adherent, top dose 4 µM)”, for which the AUC is 0.698 and the IC50 came to 1.1 µM.

For the cell line “SNU-182 (liver, adherent, top dose 4 µM)”, the AUC was 0.753 and the concentration for half-maximal inhibition (IC50) turned out to be 1.39 µM.

Turning to “SNU-387 (liver, adherent, top dose 4 µM)”, the AUC amounted to 0.688 and the half-inhibitory concentration (IC50) was 0.912 µM.

For the cell line “SNU-407 (large intestine, adherent, top dose 4 µM)”, the AUC worked out at 0.815 and the IC50 is 2.67 µM.

On to “SNU-423 (liver, adherent, top dose 4 µM)”, for which the AUC stood at 0.76 and the half-maximal inhibitory concentration (IC50) was determined as 1.63 µM.

With “SNU-449 (liver, adherent, top dose 4 µM)”, the AUC is 0.921 and the IC50 is more than 4 µM.

On to “SNU-C1 (large intestine, suspension, top dose 4 µM)”, for which the AUC was determined as 0.672 and the half-maximal inhibitory concentration (IC50) worked out at 0.953 µM.

As for “SNU-C2B (large intestine, adherent, top dose 4 µM)”, the AUC amounted to 0.923 and the IC50 was more than 4 µM.

As for “SNU-C5 (large intestine, adherent, top dose 4 µM)”, the AUC worked out at 0.814 and the half-maximal inhibitory concentration (IC50) came out at 2.45 µM.

With “SR (lymphoid neoplasm, suspension, top dose 4 µM)”, the AUC came out at 0.894 and the half-inhibitory concentration (IC50) is 3.98 µM.

Take “ST486 (Burkitt lymphoma, suspension, top dose 4 µM)”: the AUC is 0.98 and the 50% inhibitory concentration (IC50) is more than 4 µM.

“STS-0421 (soft tissue, adherent, top dose 4 µM)”: the AUC stood at 0.698 and the 50% inhibitory concentration (IC50) worked out at 0.997 µM.

Consider “SU-DHL-4 (B-cell lymphoma, suspension, top dose 4 µM)”, for which the AUC was found to be 0.788 and the IC50 amounted to 1.26 µM.

In the case of “SU-DHL-5 (B-cell lymphoma, suspension, top dose 4 µM)”, the AUC is 0.57 and the IC50 turned out to be 0.37 µM.

Regarding “SU-DHL-6 (B-cell lymphoma, suspension, top dose 4 µM)”, the AUC stood at 0.386 and the IC50 was found to be 0.132 µM.

On to “SU-DHL-8 (B-cell lymphoma, suspension, top dose 4 µM)”, for which the AUC came out at 0.988 and the IC50 was more than 4 µM.

As to “SU-DHL-10 (B-cell lymphoma, suspension, top dose 4 µM)”, the AUC turned out to be 0.587 and the 50% inhibitory concentration (IC50) was determined as 0.404 µM.

As for “SU-DHL-16 (B-cell lymphoma, suspension, top dose 4 µM)”, the AUC was 0.605 and the 50% inhibitory concentration (IC50) amounted to 0.448 µM.

For the cell line “SUIT-2 (pancreas, adherent, top dose 2 µM)”, the AUC was 0.946 and the half-inhibitory concentration (IC50) is more than 2 µM.

For “SUP-B8 (B-cell leukaemia, suspension, top dose 4 µM)”, the AUC came to 0.815 and the 50% inhibitory concentration (IC50) came to 2.16 µM.

Take “SUP-B15 (lymphoblastic leukaemia, suspension, top dose 4 µM)”: the AUC is 0.836 and the IC50 turned out to be 2.5 µM.

Turning to “SUP-HD1 (Hodgkin lymphoma, suspension, top dose 4 µM)”, the AUC is 0.918 and the IC50 was more than 4 µM.

For “SUP-M2 (anaplastic large cell lymphoma, suspension, top dose 4 µM)”, the AUC was 0.976 and the half-maximal inhibitory concentration (IC50) was more than 4 µM.

As to “SUP-T1 (T-cell lymphoblastic leukaemia, suspension, top dose 4 µM)”, the AUC came to 0.874 and the 50% inhibitory concentration (IC50) is 3.27 µM.

With “SW48 (large intestine, adherent, top dose 4 µM)”, the AUC turned out to be 0.937 and the 50% inhibitory concentration (IC50) is more than 4 µM.

Regarding “SW620 (large intestine, adherent, top dose 4 µM)”, the AUC came to 0.986 and the concentration for half-maximal inhibition (IC50) is more than 4 µM.

Take SW626 (ovary, adherent, top dose 4 µM): the AUC worked out at 0.953 and the 50% inhibitory concentration (IC50) is more than 4 µM.

“SW684 (fibrosarcoma, adherent, top dose 4 µM)”: the AUC is 0.968 and the IC50 was more than 4 µM.

With SW756 (cervix, adherent, top dose 4 µM), the AUC is 0.876 and the IC50 was more than 4 µM.

“SW780 (bladder, adherent, top dose 4 µM)”: the AUC was determined as 0.906 and the concentration for half-maximal inhibition (IC50) was more than 4 µM.

In the case of “SW948 (large intestine, adherent, top dose 4 µM)”, the AUC was determined as 0.942 and the 50% inhibitory concentration (IC50) was more than 4 µM.

For the cell line “SW954 (urogenital system, adherent, top dose 4 µM)”, the AUC worked out at 0.858 and the IC50 amounted to 3.34 µM.

On to “SW962 (urogenital system, adherent, top dose 4 µM)”, for which the AUC amounted to 0.853 and the IC50 is more than 4 µM.

With “SW982 (soft tissue, adherent, top dose 4 µM)”, the AUC stood at 0.98 and the IC50 is more than 4 µM.

Regarding “SW1271 (small cell lung carcinoma, adherent, top dose 4 µM)”, the AUC amounted to 0.954 and the IC50 is more than 4 µM.

With “SW1417 (large intestine, adherent, top dose 4 µM)”, the AUC was determined as 0.93 and the IC50 is more than 4 µM.

“SW1573 (lung adenocarcinoma, adherent, top dose 4 µM)”: the AUC turned out to be 0.915 and the IC50 is more than 4 µM.

Consider “SW1710 (bladder, adherent, top dose 4 µM)”, for which the AUC turned out to be 0.803 and the IC50 was determined as 2.06 µM.

Consider “SW1783 (glioma, adherent, top dose 4 µM)”, for which the AUC turned out to be 0.935 and the IC50 was more than 4 µM.

On to “Saos-2 (osteosarcoma, adherent, top dose 4 µM)”, for which the AUC was 0.831 and the IC50 is more than 4 µM.

In the case of SiHa (cervix, adherent, top dose 4 µM), the AUC turned out to be 0.875 and the IC50 is more than 4 µM.

With “T84 (large intestine, adherent, top dose 4 µM)”, the AUC worked out at 0.989 and the concentration for half-maximal inhibition (IC50) was more than 4 µM.

As for T98G (glioma, adherent, top dose 4 µM), the AUC was determined as 0.86 and the IC50 came to 2.95 µM.

Turning to “T-T (oesophagus, adherent, top dose 4 µM)”, the AUC worked out at 0.862 and the concentration for half-maximal inhibition (IC50) was 3.39 µM.

For “TC-71 (Ewing sarcoma, adherent, top dose 4 µM)”, the AUC worked out at 0.965 and the half-maximal inhibitory concentration (IC50) was more than 4 µM.

As for “TC-YIK (cervix, suspension, top dose 4 µM)”, the AUC came out at 0.968 and the concentration for half-maximal inhibition (IC50) was more than 4 µM.

Regarding “TCCSUP (bladder, adherent, top dose 4 µM)”, the AUC is 0.953 and the 50% inhibitory concentration (IC50) is more than 4 µM.

In the case of “TE-1 (oesophagus, adherent, top dose 4 µM)”, the AUC amounted to 0.948 and the half-inhibitory concentration (IC50) is more than 4 µM.

Regarding “TE-4 (oesophagus, adherent, top dose 4 µM)”, the AUC worked out at 0.785 and the 50% inhibitory concentration (IC50) was determined as 1.7 µM.

In the case of “TE-5 (oesophagus, adherent, top dose 4 µM)”, the AUC worked out at 0.841 and the 50% inhibitory concentration (IC50) came out at 3.41 µM.

In the case of “TE-6 (oesophagus, adherent, top dose 4 µM)”, the AUC turned out to be 0.874 and the concentration for half-maximal inhibition (IC50) was more than 4 µM.

For “TE-8 (oesophagus, adherent, top dose 4 µM)”, the AUC is 0.926 and the half-maximal inhibitory concentration (IC50) was more than 4 µM.

For “TE-9 (oesophagus, adherent, top dose 4 µM)”, the AUC is 0.985 and the IC50 was more than 4 µM.

“TE-10 (oesophagus, adherent, top dose 4 µM)”: the AUC came out at 0.97 and the IC50 is more than 4 µM.

On to “TE-11 (oesophagus, adherent, top dose 4 µM)”, for which the AUC turned out to be 0.983 and the IC50 was more than 4 µM.

With “TE-12 (oesophagus, suspension, top dose 4 µM)”, the AUC was found to be 0.943 and the 50% inhibitory concentration (IC50) was more than 4 µM.

Regarding “TE-15 (oesophagus, suspension, top dose 4 µM)”, the AUC was found to be 0.827 and the IC50 came out at 2.89 µM.

As for “TGBC1TKB (biliary tract, adherent, top dose 4 µM)”, the AUC turned out to be 0.932 and the 50% inhibitory concentration (IC50) was more than 4 µM.

“TGBC11TKB (stomach, adherent, top dose 4 µM)”: the AUC amounted to 0.992 and the IC50 was more than 4 µM.

On to “TGW (neuroblastoma, adherent, top dose 4 µM)”, for which the AUC turned out to be 0.894 and the IC50 was 3.61 µM.

Turning to TK10 (kidney, adherent, top dose 4 µM), the AUC is 0.891 and the concentration for half-maximal inhibition (IC50) is more than 4 µM.

As for “TK (B-cell lymphoma, suspension, top dose 4 µM)”, the AUC came to 0.867 and the IC50 came to 3.1 µM.

For the cell line “TMK-1 (stomach, adherent, top dose 4 µM)”, the AUC was found to be 0.785 and the concentration for half-maximal inhibition (IC50) worked out at 1.82 µM.

Consider “TOV-21G (ovary, adherent, top dose 4 µM)”, for which the AUC worked out at 0.928 and the concentration for half-maximal inhibition (IC50) was more than 4 µM.

For “TOV-112D (ovary, adherent, top dose 4 µM)”, the AUC was determined as 0.957 and the IC50 was more than 4 µM.

Take “TT2609-C02 (thyroid, adherent, top dose 4 µM)”: the AUC is 0.906 and the concentration for half-maximal inhibition (IC50) was more than 4 µM.
